# In ChEMBL document CHEMBL1157539, “Thousands of chemical starting points for antimalarial lead identification” (Nature, 2010):
# Whole data set: some 13,000 compounds, median “IFI” near 4, cut for the highest 2% near 17. Some of the results follow.
# Assay: GSK_TCMDC: Inhibition Frequency Index (IFI). The number of non-kinase HTS assays where a compound showed > 50 % inhibition, expressed as a percentage of the number of such assays in which the compound was tested (-0 is zero)
# Format: functional
row,SMILES,IFI [%]
1,Cc1cc(NC(=O)Nc2cccc(N(C)C)c2)c2ccccc2n1,6.85
2,O=C(Nc1cccc(C(F)(F)F)c1)c1ccc(S(=O)(=O)NC2CCN(CC3CCCCC3)CC2)cc1,5.05
3,CN(C)CCC=C1c2ccccc2Sc2c(O)cc(Cl)cc21,6.87
4,c1ccc2c(c1)CN(CC1CCOCC1)CC1(CCN(Cc3c[nH]c4cnccc34)CC1)O2,-0
5,CC(=O)C1=NN(c2ccc(Cl)cc2)C(c2cccs2)N1c1ccccc1 (stereo not drawn),0.7
6,COc1ccc(-c2ccc(NC(=O)c3cccs3)cc2)cc1CN1CCCN(C)CC1,4.85
7,CC1(C)C2C=C(CN3CCC(NC(=O)Nc4ccc(Cl)c(Cl)c4)CC3)C1CC2 (stereo not drawn),8.59
8,Cc1ccc(NC(=O)c2ccc(CN3CCCN(Cc4cccc(O)c4)CC3)cc2)cc1C,9.09
9,O=C(CN1CCCC1)Nc1cccc(C(=O)Nc2cccc(C(F)(F)F)c2)c1,1.74
10,Cc1ccc(O)cc1C[C@@H]1C(=O)CC[C@@]2(C)[C@H]1CC[C@]2(C)O,-0
11,Cc1cc(NC(=O)c2ccco2)ccc1OC1CCN(Cc2ccc(F)cc2)CC1,0
12,COc1ccc(-c2cn3c(C(=O)Nc4ccccc4Cl)c(-c4ccccc4)c4c3n2CCCC4)cc1,0
13,Cc1c(C(=O)Nc2cc(Sc3ccc(F)cc3)cc([N+](=O)[O-])c2)sc2ncn(Cc3ccccc3F)c(=O)c12,0.87
14,COc1ccc(CNC2CCN(C)CC2)cc1-c1ccc(S(=O)(=O)NCc2ccccc2)c(F)c1,10.6
15,Cn1nc(C(F)(F)F)c(-c2ccc(F)cc2)c1NC(=O)Nc1ccc(F)cc1F,8.05
16,COc1cc2c(cc1C=CC(=O)N1CCN(Cc3nc(O)c4c(C)c(C)sc4n3)CC1)OC(C)C2 (stereo not drawn),1.96
17,Nc1ncc(-c2cccc(F)c2)cc1-c1nc2cc(F)ccc2[nH]1,13.8
18,COc1ccc2ccccc2c1C=NN=c1cc(C)[nH]c2cc(C(F)(F)F)ccc12,0.75
19,COC(=O)c1ccc(C(=O)NCCCCN2CCC(c3ccc4c(c3OC)CCCC4)CC2)cc1-c1ccc(C(F)(F)F)cc1,11.4
20,NCCCNc1ccnc2cc(Cl)ccc12,0
21,CCNc1cc(C(=O)N[C@@H](Cc2ccccc2)[C@H](O)CN[C@H]2CCc3ccccc32)cc(N2CCCC2=O)c1,2.17
22,c1ccc(CNCc2ccc(-c3ccc(-c4nc5ccccc5[nH]4)cc3)cc2)cc1,13.1

row,SMILES,IFI [%]
1,CC(C)[C@H](NC(=O)c1ccc(O)c(-c2cccc(C(F)(F)F)c2)c1)C(=O)NC1CCCc2ccccc21 (stereo partly drawn),2.92
2,COc1ccc2nccc([C@@H](O)CN3CCC(NC(=O)Cn4nc(-c5ccc(C(F)(F)F)cc5)ccc4=O)CC3)c2c1,0.74
3,COc1cc2nc(NCCc3ccccc3)nc(NCCCc3ccccc3)c2cc1OC,11.4
4,CCCC(N)C(=O)NC1CCN(c2c(F)c(N)c3c(=O)c(C(=O)O)cn4c3c2Oc2ccccc2-4)C1 (stereo not drawn),10.9
5,CC(C)(C)c1cc(C(=O)Nc2cccnc2)cc(C(=O)Nc2cccnc2)c1,0
6,CN1CCN(c2cccc(-c3nnc(-c4ccc(OCC(=O)NCc5ccc(C(F)(F)F)cc5)c([N+](=O)[O-])c4)o3)c2)CC1,4.32
7,CC[C@H](C)CNC(=O)c1cncc(-c2ccc(CN(C)C3CCN(C)CC3)cc2)c1,-0
8,CCCOc1ccc(C(F)(F)F)cc1NC(=O)c1nc2nc(C)cc(C)n2n1,1.01
9,CCCCCCN1CCC(NCc2ccc(C)cc2)CC1,3.4
10,Cc1cc(N2CCN(CC3CCCCC3)CC2)nc(Nc2ccc(Br)cc2)n1,2.67
11,COc1ccc(NS(=O)(=O)c2cccc(C(=O)Nc3ccc(C(F)(F)F)cc3)c2)cc1N1CCN(CC(C)C)CC1,2.84
12,Cc1ccc2c(=O)cc(CCc3cccc(F)c3F)n(CC(=O)N(Cc3ccc(-c4ccc(C(F)(F)F)cc4)cc3)C3CCN(C)CC3)c2n1,8.51
13,O=C(Nc1ccsc1)Nc1cccc(-c2cccc(-c3nc4ccccc4[nH]3)c2)c1,4.04
14,COc1ccc(Cc2c(N)nc3nc(N)nc(N)c3c2C)cc1,2.92
15,Cc1ccc(Nc2ccnc3ccc(C(F)(F)F)cc23)cc1O,2.92
16,CC(C)Sc1nc(-c2ccccc2)nc2c1COC(C)(C)C2,0
17,COc1cccc(Cc2c(C)nc3nc(N)nc(N)c3c2C)c1,2.19
18,Cc1ccc(/C=C/C(=O)NCCCCCN2CCC(c3c[nH]c4ccccc34)CC2)cc1,6.29
19,O=C(NCc1cccc(Cl)c1)c1ccc(CNC2CCN(Cc3ccccc3)CC2)cc1,2.22
20,CN(CCCc1c[nH]c2ccccc12)CC1CCN(C(=O)/C=C/c2ccc(Cl)c(Cl)c2)CC1,9.77
21,CCCCCCc1cc2cc(-c3nc(-c4ccc(OC)cc4)cs3)c(=O)oc2cc1O,4.46
22,CC1(C)N=C(N)N=C(N)N1CCc1ccccc1,0.73

row,SMILES,IFI [%]
1,Cc1cc(N2CCN(C(=O)OC(C)(C)C)CC2)ccc1N,5.04
2,CC(C)N(Cc1cnc(N)c(C#N)n1)c1ccc(Cl)c(Cl)c1,3.65
3,Nc1ncc(-c2cn[nH]c2)cc1-c1nc2ccc(F)cc2[nH]1,6.06
4,Cc1cccc(C)c1OC(=O)C(C)C(O)C1(Sc2ccccc2)CCN(C)CC1 (stereo not drawn),0.75
5,CCCC(C)c1cnc2nc(N)nc(N)c2c1C (stereo not drawn),2.14
6,N=C(N)c1ccc(NC(=O)c2cc(Sc3ccc(O)c(C(=O)Nc4ccc(C(=N)N)cc4)c3)ccc2O)cc1,9.52
7,Cc1cccc2nc(-c3cccc(-c4cccc(NC(=O)c5cn(C)c(=O)n5C)c4)c3)[nH]c12,5.56
8,CC(=O)Nc1ccc(C(=O)Nc2cccc(-c3csc(-c4nc5ccccc5[nH]4)c3)c2)cn1,1.85
9,O=C(NC1CCN(Cc2ccccc2)CC1)c1ccc(-c2nc3cc(F)c(F)cc3[nH]2)s1,0
10,CCOc1ccc(C(=O)Nc2cc(Cl)ccc2O)cc1Cl,2.88
11,O=C(Nc1ccccc1)N(Cc1cccc(-c2ccc(CNCCc3ccccc3)cc2)c1)C1CCN(Cc2ccccc2)CC1,12.8
12,Oc1ccc(CCCNc2nc(NCc3ccccc3-c3ccccc3)nc(N3CCNCC3)n2)cc1,14.9
13,Cc1cccc2nc(-c3ccc(-c4cccc(NC(=O)c5cnn6cccnc56)c4)cc3)[nH]c12,5.71
14,COc1ccc(-c2nc(NC(=O)Cc3cccc(OC)c3)sc2C)cc1,1.85
15,Nc1nc(N)c2cc(C#Cc3ccc(-c4ccccc4)cc3)ccc2n1,0.74
16,O=C(Nc1ccc(Oc2ccccc2)cc1)N[C@@H](Cc1ccc(O)cc1)C(=O)NC1CCN(Cc2ccc(O)c([N+](=O)[O-])c2)C1 (stereo partly drawn),2.9
17,Cc1cccc2nc(-c3ccc(-c4ccc(CN5CCN(CCN6CCOCC6)CC5)cc4)cc3)[nH]c12,4.23
18,CC(C)CCN1CCC(Oc2ccc(NC(=O)c3cccs3)cc2Cl)C1 (stereo not drawn),10.9
19,OCC1CCCCN1Cc1cccc(-c2cccc(-c3nc4ccccc4[nH]3)c2)c1 (stereo not drawn),2.82
20,COc1ccc(CNCc2ccc(-c3ccc(-c4nc5cc(F)ccc5[nH]4)cc3)cc2)cc1,13.1
21,COc1cc2c(cc1OC)C(C(=O)c1ccccc1)=NCC2,0.71
22,O=C(CCc1c[nH]cn1)Nc1cccc(-c2ccc(-c3nc4ccccc4[nH]3)s2)c1,0.88

row,SMILES,IFI [%]
1,O=C(Nc1ccc(Cl)c(C(F)(F)F)c1)NC1CCN(CCCCCNC(=O)C2CC2c2ccc(Cl)c(Cl)c2)CC1 (stereo not drawn),17.1
2,COc1ccc(Cn2c(=O)[nH]c3cc(C(=O)NC4CCN(Cc5ccccc5)CC4)ccc3c2=O)cc1,5
3,COc1ccc(C2CC(=O)C3=C(C2)NC(C)=C(C(=O)OC2CCCC2)C3c2ccc(O)cc2)cc1OC (stereo not drawn),2.84
4,COc1cc(NC(=O)CCCCCCCN2CCN(C)CC2)c2ncccc2c1,-0
5,O=C(C=Cc1ccc(Cl)c(Cl)c1)NCCCCCN1CCC(CCNS(=O)(=O)c2ccc(Br)cc2)CC1,10.8
6,O=C(NCCCCN1CC=C(c2ccc3c(c2OCc2ccccc2)CCCC3)CC1)c1ccc(-c2ccc(C(F)(F)F)cc2)cc1,7.83
7,O=C(/C=C/c1ccc(Cl)cc1)NCCCCCN1CCCC(C(=O)Nc2ccc(Cl)c(Cl)c2)C1 (stereo not drawn),12.2
8,COc1cc(F)c2ncc(F)c([C@@H](O)CN3CCC(NCc4cc5c(cn4)OCCO5)CC3)c2c1,0
9,CCN(CCCN1CCCCC1)c1cc(C)nc(Nc2cc(C)ccc2C)n1,2.56
10,CC(C)(C)OC(=O)NCc1ccc(Nc2nnc(-c3ccc(OCC(=O)NCc4cc(C(F)(F)F)cc(C(F)(F)F)c4)c([N+](=O)[O-])c3)o2)cc1,8.45
11,CS(=O)(=O)CCNCc1cccc(-c2cc3nccc(Nc4ccc(Oc5ccccc5)cc4)c3cc2Cl)c1,2.16
12,O=C(Nc1ccc(C(F)(F)F)cc1)NC1CCN(CCCCCNC(=O)C2CC2c2ccc(Cl)c(Cl)c2)CC1 (stereo not drawn),11.1
13,O=C(Nc1cccc2ccccc12)N1CCC(NS(=O)(=O)c2cccc(C(F)(F)F)c2)CC1,1.47
14,Cc1cc(NCCC(=O)Nc2ccccc2)nc(NCCc2cccnc2)n1,2.44
15,CCCCCNC(=N)c1ccc(OCCCCCOc2ccc(C(=N)NCCCCC)cc2)cc1,5
16,Cc1cc(N[C@@H](Cc2ccccc2)C(=O)NCCOc2ccccc2)nc(NCC2CCCCC2)n1,16.7
17,COc1c(C2CCN(CCCCNC(=O)c3ccc(-c4ccc(NC(=O)C(F)(F)F)cc4)cc3)CC2)ccc2c1CCCC2,9.92
18,Fc1ccc2[nH]c(-c3cccc(-c4ccc(CN5CCC(CCN6CCCCC6)CC5)cc4)c3)nc2c1,8.33
19,O=C(Nc1cccc(-c2nn3ccccc3c2-c2ccnc(Nc3ccccc3)n2)c1)c1c(F)cccc1F,4.42
20,COc1ccc(C=CC(=O)NC(=O)c2ccccc2OC(=O)c2ccccc2)cc1OC,7.25
21,CC[C@H](C)CNC(=O)c1ccnc(-c2ccc(CN3CCC(N4CCCC4)CC3)cc2)c1,1.61
22,CC(C)(C)NC(=O)C(c1ccc(F)cc1)N(C(=O)c1ccc(CN2CCOCC2)o1)c1ccc(C2CCCCC2)cc1 (stereo not drawn),5.04
